# Data reported in PubChem BioAssay AID652104 (National Center for Advancing Translational Sciences (NCATS), 2013).
# In all, about 410,000 compounds went through this assay and about 7,200 (1.8%) were called active. Inconclusive results, whose numbers are uncertain, are shown with a selection of clear calls. The call rests on the fitted dose curve; in most records, active means well fitted activation curve with a large enough effect; inconclusive means small, poorly fitted or top-dose-only effect, or another doubt; inactive means no such curve, though single readings can be large or run the other way. No potency is given beside an inconclusive call; the fits are too rough.
# Assay: qHTS of TDP-43 Inhibitors; further: nearly all actives have a fitted effect of over 50% in size; on growth rescue (activation): % of control where 0% means no effect
# Settings: TDP-43 expressing yeast growth rescue, BacTiter-Glo, 24 h; growth rescue (activation): at 46.1 µM (top of the series) unless noted
# Procedure, shortened: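 Growth rescue of TDP-43-toxic yeast measured as ATP luminescence (BacTiter-Glo). Cells grown to mid-log in raffinose, induced in galactose at OD600=0.02, exposed to compound 24 hr at 30 deg C.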
# Potency means the concentration at half of the fitted maximal effect; tags describe the fitted curve by direction and shape.
Structure (SMILES),Potency,growth rescue (activation)
Brc1ccc(-c2nn3c(Cc4ccccc4)nnc3s2)o1,"inconclusive [activator, partial curve]",–
COC(=O)c1cn(C(=O)c2cccc(C)c2)c2ccccc12,"inconclusive [activator, single point]",–
Cc1nn2cc(-c3cccc(Cl)c3)cnc2c1Cl,"inconclusive [activator, single point]",–
COC(=O)c1ccc(CSc2nc3cc(Cl)ccc3s2)o1,"inconclusive [activator, partial curve]",–
COc1ccc([C@H]2CC(=O)C=C(c3ccc(OC)nc3)C2)cc1,"inconclusive [activator, single point]",–
CCN=C1S/C(=C/c2ccc(-c3ccc(F)cc3)o2)C(=O)N1CC,"inconclusive [activator, full curve, poor fit]",–
CC1CCN(C(=O)CSc2ccc(-c3ccc4c(c3)OCCO4)nn2)CC1,"inconclusive [activator, single point]",–
COC(=O)[C@]12CCCCC=C1N(CCc1ccc(OC)c(OC)c1)C(=O)[C@H](CC(=O)N1CCC(c3ccccc3)CC1)C2,"inconclusive [activator, single point]",–
Cc1c(C(=O)n2cnc3ccccc32)cccc1[N+](=O)[O-],"inconclusive [activator, partial curve, poor fit]",–
Cc1nonc1OCCNc1ccc([N+](=O)[O-])cc1[N+](=O)[O-],"inconclusive [activator, partial curve]",–
O=S(=O)(NCc1ccccc1)c1ccc(-n2cccn2)cc1,"inconclusive [activator, partial curve]",–
COc1ccc(-c2nnc(SCc3cc(=O)c4cc(C)cc(C)c4[nH]3)n2C)cc1,inactive,–
COc1ccc(OC)c(C2Nc3c(Cl)ccc(C(=O)O)c3C3C=CCC32)c1 (stereo not drawn),"inconclusive [activator, partial curve]",–
Cc1cccc(-c2noc(-c3ccccc3NC(=O)C3CC(=O)N(c4ccccc4C)C3)n2)c1 (stereo not drawn),inactive,–
Cc1ccc(S(=O)(=O)SC/C=C/CSS(=O)(=O)c2ccc(C)cc2)cc1,–,inconclusive: -73.3% [activator]
NC(=O)c1cc2c(s1)-c1cc(Cl)ccc1SC2,"inconclusive [activator, partial curve]",–
CN(CC(=O)Nc1cccc(F)c1)C(=O)c1cccc2ccccc12,"inconclusive [activator, single point]",–
COc1ccc(C(CC(=O)c2ccc(C)cc2)C(C#N)C#N)cc1OC (stereo not drawn),"inconclusive [activator, single point]",–
